Molecules are shown by their SMILES. In all, about 340,000 compounds went through this assay and about 6,900 (2%) were called active. Rule as the data show it: active = inhibition above about 30%; inactive = below that, where a call was filed. This is a selection; strong and weak results do not stand in their true shares. Entries without a call were filed so in the source.

The values that follow come from PubChem BioAssay AID485344 (National Center for Advancing Translational Sciences (NCATS), 2010).

UniProt P14416, sequence (P14416 whole entry, looked up): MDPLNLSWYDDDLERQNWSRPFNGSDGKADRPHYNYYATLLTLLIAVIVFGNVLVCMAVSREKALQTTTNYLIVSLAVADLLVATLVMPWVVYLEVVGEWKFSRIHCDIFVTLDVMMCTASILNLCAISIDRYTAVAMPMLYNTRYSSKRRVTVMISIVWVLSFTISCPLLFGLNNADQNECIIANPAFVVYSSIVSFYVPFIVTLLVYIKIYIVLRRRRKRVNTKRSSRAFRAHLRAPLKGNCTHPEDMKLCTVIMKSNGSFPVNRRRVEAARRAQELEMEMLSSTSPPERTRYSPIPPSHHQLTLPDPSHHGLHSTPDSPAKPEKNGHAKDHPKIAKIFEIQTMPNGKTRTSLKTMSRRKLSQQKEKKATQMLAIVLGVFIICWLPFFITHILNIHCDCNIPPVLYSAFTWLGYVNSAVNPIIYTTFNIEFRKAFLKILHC

The target in the assay is D(2) dopamine receptor (Homo sapiens) (UniProt P14416). Kind of assay: HTS Assay for Allosteric Antagonists of the Human D2 Dopamine Receptor: Primary Screen for Antagonists. Also: 0% is about no effect. The note with it: HEK293 TREx D2 cells, calcium flux, dopamine EC80; at 10 µM; stronger effect = higher value. An outline of the steps:
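In this primary screen, negative modulation is detected by tracking calcium flux after an EC80 dopamine challenge in inducible HEK293 T-REx D2 cells preexposed to test compound for 180 s.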
By inhibition is commonly meant the drop in the measured response relative to a control, in per cent. Consider `O=C(OCC(=O)N1CCCc2ccccc21)c1ccc(S(=O)(=O)C(F)F)cc1`, for which the inhibition was active: 42.3%. Turning to `CC(=O)c1cccc(NC(=O)Cc2noc3ccccc23)c1`, the inhibition was -8.33%. On to `CC(C)CCNC(=O)CN1C(=O)c2cccnc2Sc2ccccc21`, for which the inhibition is -3.81%. Then `O=C(Nc1ccc2nc(SCCOc3ccccc3Cl)sc2c1)c1ccc2c(c1)OCO2`, with -5.08%. Then `CCCCC(=O)NC1(C(F)(F)F)C(=O)Nc2c1c(=O)[nH]c(=O)n2-c1ccc(C)c(C)c1` (stereo not drawn), with 3.46%; and `COc1ccc(CC(=O)Nc2cc(-c3cn4cccnc4n3)ccc2OC)cc1`, with -8.37%; and `O=C(CNC(=O)c1ccc(Cl)cc1)OCC(=O)c1ccc2c(c1)OCCO2`, with active: 41.2%. Consider `CCCCOc1ccccc1C(=O)N(Cc1cccc(F)c1)C1CCS(=O)(=O)C1` (stereo not drawn), for which the inhibition is -7.22%. In the case of `O=C(COC(=O)/C=C/c1ccc(S(=O)(=O)N2CCOCC2)cc1)NCc1ccc(Cl)cc1`, the inhibition is active: 46.5%. Then `CCOc1ccc(CCNC(=O)CSc2nnnn2-c2ccc(C)cc2C)cc1OCC`, with -3.16%; and `CCOC(=O)C1=C(CN(C)Cc2ccccc2)NC(=O)NC1c1ccc(OC)cc1` (stereo not drawn), with 0.438%; and `CCOc1ccc(NC(=O)N(C)CCc2c(C)nn(C)c2C)cc1`, with -23.7%. Then `O=C(NCC(c1cccnc1)N1CCc2ccccc21)c1ccc(F)cc1` (stereo not drawn), with 4.91%. To `CC(=O)N1CCc2cc(S(=O)(=O)NC(CC(C)C)C(=O)NCCc3cccc(C)c3)ccc21` (stereo not drawn) belongs 6.03%.

As for `CCn1c(SCC(=O)Nc2cc(C)on2)nc2sc(C)c(C)c2c1=O`, the inhibition is active: 35.5%. Regarding `CCOc1ccccc1CNC(=O)CSc1nnc(C)c2c(C)n(-c3ccccc3)nc12`, the inhibition is 0.992%. Then `Cc1oc(-c2ccccc2Cl)nc1CS(=O)(=O)CC(=O)NC(C)c1ccccc1` (stereo not drawn), with 12.4%; and `Cc1ccc2onc(CNC(=O)NCc3ccccc3)c2c1`, with -2.85%.

Take `CCC(C(=O)Nc1ccccc1OC)n1c(C(=O)OC)cc2sc(Cl)cc21` (stereo not drawn): the inhibition was 1.71%. Take `CCc1nc(SCC(=O)Nc2cc(C)ccc2OC)c2c(C)c(C)sc2n1`: the inhibition was active: 43.8%. To `O=C(COc1ccccc1)Nc1nnc(SCc2cc(=O)n3cc(Cl)ccc3n2)s1` belongs -5.76%; to `COc1ccc(CCNC(=O)CCS(=O)(=O)c2cc3c(cc2Cl)NC(=O)CO3)cc1OC`, -14.5%; to `CCc1nnc(SCC(=O)Nc2cccc(C(F)(F)F)c2)c2cc3oc(C)cc3n12`, -16%.

Regarding `CCOC(=O)Cc1c(C)nc2c(-c3ccc(Cl)cc3)c(C(F)(F)F)nn2c1C`, the inhibition is -13%. To `CCCc1nn2cc(-c3ccc(C)c(C)c3)nc2s1` belongs 12.4%. For `COc1ccc(/C=C/C(=O)Nc2ccc3nc4c(c(Nc5ccc(OC)c(OC)c5)c3c2)CCCC4)cc1`, the inhibition is -5.41%.

For `COc1ccc(-c2noc(CSc3nnc(Cc4ccccc4)n3-c3cccc(C)c3)n2)cc1`, the inhibition is -3.69%. For the compound `O=c1[nH]c2ccc(NCc3ccc(-c4ccc(F)cc4)o3)cc2[nH]1`, the inhibition came out at 2.36%. Then `c1ccc2c(c1)ncc1nncn12`, with 6.57%; and `Cc1ccc(CN(C(=O)COc2ccc([N+](=O)[O-])cc2)c2ccccn2)o1`, with 5.71%; and `CCC1CCCCN1S(=O)(=O)c1cc2c(cc1C)NC(=O)CO2` (stereo not drawn), with 14.7%. To `CC(=O)c1ccc(NC(=O)CSc2ccc3nnc(CCNS(=O)(=O)c4ccc(C)cc4)n3n2)cc1` belongs -0.899%. To `Cc1ccc(Nc2ncc(C(=O)Nc3ccc(F)cc3F)c3ccccc23)cc1Cl` belongs 1.93%; to `CC(=O)c1cccc(NC(=O)C2CCN(S(=O)(=O)c3ccccc3)CC2)c1`, -14.9%; to `COc1ccc(CNC(=O)c2nn(C)c3c2CS(=O)(=O)c2ccccc2-3)cc1`, 8.01%. `N#C/C(=C\c1ccc(N2CCOCC2)o1)C(=O)NCCc1ccccc1`: the inhibition was active: 45.6%. Then `O=C(NCCc1ccccc1)c1cnc2sc(N3CCCCC3)nn2c1=O`, with 1.65%; and `CCC1Oc2ccccc2N(CC(=O)NCCc2ccc(OC)c(OC)c2)C1=O` (stereo not drawn), with 24%. Then `COc1cc(OC)c(NC(=O)N2CCc3cc(S(=O)(=O)N4CCC(C)CC4)ccc32)cc1Cl`, with 3.43%; and `O=c1oc2ccc3ccccc3c2cc1-c1nnc(Nc2cccc(C(F)(F)F)c2)s1`, with 3.05%; and `COc1ccc(CCNS(=O)(=O)c2ccc(N3CCCCS3(=O)=O)cc2)cc1`, with -15.3%. Then `O=C(c1cc2c(s1)-c1ccccc1OC2)N1CCN(c2ccc(F)cc2)CC1`, with -1.9%; and `O=c1[nH]c(Nc2ccc3c(c2)OCCO3)nnc1Cc1ccc(Cl)cc1`, with active: 33.4%.

As to `COc1ccc(OC)c(CCNC(=O)Cn2nc(C)n3c(cc4sccc43)c2=O)c1`, the inhibition was -9.91%.

As to `COc1ccc(-n2ncc(C(=O)NCCN3CCOCC3)c2C2CCN(C(=O)OC(C)(C)C)CC2)cc1`, the inhibition came out at 11.9%. To `Cc1nc(-c2cccc(S(=O)(=O)N3CCC(C(=O)NCc4ccccc4Cl)CC3)c2)no1` belongs 7.97%; to `Cn1nc(-c2ccccc2F)c2cc(C(=O)NCc3cccc(Cl)c3)sc21`, -0.6%. To `Cc1cc(C)cc(NC(=O)c2cc(S(=O)(=O)N3CCCC3)ccc2F)c1` belongs -14%; to `Cc1cccc(CSc2nnc(CCCCCN)o2)c1`, -26.9%. For `Cc1ccc(C)c(NC(=O)c2nnn(Cc3ccc(F)cc3Cl)c2N)c1`, the inhibition was found to be 5.97%. To `CC1CCc2nc(NC(=O)CN3CCN(Cc4ccc5c(c4)OCO5)CC3)sc2C1` (stereo not drawn) belongs active: 72.3%; to `Cc1ccccc1CNCc1c(C(=O)O)c(C)n(Cc2ccc(F)cc2Cl)c1C`, 8.09%.

As for `COc1ccc(-n2ncc3c2ncn2nc(Cc4ccccc4)nc32)cc1`, the inhibition was determined as 4.2%. For the compound `COC(=O)CCC(=O)OC1(C)C(=O)C=C2C=C(C3CC3)N(CC(C)C)C=C2C1=O` (stereo not drawn), the inhibition was active: 31.5%. To `CC(=O)Nc1ccc(C(=O)Nc2ccc3c(c2)N(C2CCCC2)C(=O)c2ccccc2S3)cc1` belongs 18.7%; to `O=C(O)/C=C/C(=O)NCCc1ccccc1`, active: 60.9%. Then `Cc1nnc(N2CCC(C(=O)NC(C)C)CC2)c2nn(-c3ccccc3)c(C)c12`, with -5.95%; and `O=C(Nc1ccc(F)cc1)c1cc2cc3ccc(Cl)cc3nc2o1`, with -8.92%; and `Cc1ccc(-c2noc(-c3nnn(-c4ccc(Br)cc4F)c3C)n2)cc1`, with -5.2%. Then `COc1ccc(OC)c(NC(=O)Nc2ccc(Cl)cc2)c1`, with active: 46.5%. In the case of `COc1cc2c(cc1NC(=O)COc1ccc(Cl)cc1)oc1ccccc12`, the inhibition worked out at 11.6%. Then `Cc1ccccc1Nc1nc(N)nc(COC(=O)CCS(=O)(=O)c2ccccc2)n1`, with active: 31.7%; and `COc1ccc(NC(=O)Cn2c(=O)n(Cc3ccco3)c(=O)c3oc4ccccc4c32)cc1Cl`, with -7.48%.
